# The campaign covered roughly 280,000 compounds. About 100 (0.036%) were called active. The inconclusive results got no clear call from the source; some entries with a clear call stand among them for comparison. Calls come from the whole dose curve; as a rule, active = well fitted inhibition curve with a large enough effect in the signal ratio, with a control signal flat (not every such curve was filed as active); inconclusive = small, poorly fitted or top-dose-only effect, or effect the other way, or a change in a side signal; inactive = no such curve, though single readings can be large or run the other way; the % refers to the signal ratio. Where the call is inconclusive, the potency comes from a doubtful curve fit. “Side channel” marks fits to a control or component signal instead of the main read-out.
# Target: Muscleblind-like protein 1 (Homo sapiens) (UniProt Q9NR56)
# Sequence of UniProt Q9NR56 (Q9NR56 whole entry, looked up): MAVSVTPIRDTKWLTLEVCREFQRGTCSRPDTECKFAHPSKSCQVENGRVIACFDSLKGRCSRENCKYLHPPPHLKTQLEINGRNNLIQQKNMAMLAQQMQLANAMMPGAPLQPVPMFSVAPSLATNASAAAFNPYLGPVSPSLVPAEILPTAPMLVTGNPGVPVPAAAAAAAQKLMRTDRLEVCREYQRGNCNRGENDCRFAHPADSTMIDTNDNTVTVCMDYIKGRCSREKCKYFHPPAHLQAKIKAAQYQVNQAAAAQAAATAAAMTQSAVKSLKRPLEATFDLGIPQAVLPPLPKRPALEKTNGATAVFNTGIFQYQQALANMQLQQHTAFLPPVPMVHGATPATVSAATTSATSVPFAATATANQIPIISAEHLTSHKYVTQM
# Assay: qHTS Assay for Inhibitors of MBNL1-poly(CUG) RNA binding
# Conditions: TR-FRET MBNL1-His/biotin-(CUG)12 binding, 665/545 ratio; activity change, negative = inhibition: at 57.5 µM (top of the series)
# How it was run: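 MBNL1-His + Biotin-(CUG)12, cpd titration 92 nM–58 uM; Tb anti-His Ab 0.055 ng/ul, SA-XL665 5 nM (final); 60 min RT; ratiometric 665/545 nm, Ex 340 nm; normalized to buffer and full-complex controls.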
# % is set by controls: 0 for no effect and ±100 for the full control effect; potency is the fitted concentration of half-maximal effect; tags give direction and shape of the fitted curve or compound fluorescence and quenching.
Compound,Potency,"activity change, negative = inhibition"
Cc1nn(Cc2ccccc2)c2c1C(c1ccncc1)C(C#N)=C(N)O2 (stereo not given),"inconclusive: 20 µM [quencher, side channel, partial curve]",–
CC(C)(C)c1ccc(-c2noc(C(=O)NN)n2)cc1,inactive,–
O=C(NC1CCCCC1)C(c1cc2c(cc1[N+](=O)[O-])OCO2)N1CCCCC1 (stereo not given),–,inactive: -4.42% [at 11.5 µM]
O=[N+]([O-])c1cccc(S(=O)(=O)NCCc2ccccc2)c1,"inconclusive: 2.51 µM [quencher, side channel, full curve]",–
COc1cc2c(c(OC)c1OC)-c1c(cc(OC)c(OC)c1OC)C[C@H](C)[C@H](C)C2,inactive,–
COC(=O)c1ccc(CSc2nc(N)cc(N)n2)cc1,"inconclusive: 7.94 µM [quencher, side channel, single point]",–
CC1(C(=O)NC2CCCCC2)CCC(=O)N1Cc1cccnc1 (stereo not given),"inconclusive: 5.62 µM [quencher, side channel, single point]",–
COC(=O)C1C(c2ccc(OC)c(OC)c2)NC(c2ccc(OC)c(OC)c2)C(C(=O)OC)S1(=O)=O (stereo not given),"inconclusive: 39.8 µM [inhibitor, single point]",–
COc1ccccc1CSc1ncc(-c2ccc([N+](=O)[O-])cc2)[nH]1,"inconclusive: 22.4 µM [quencher, side channel, partial curve]",–
O=C(O)c1cccc(N2C(=O)c3cccc4cccc(c34)C2=O)c1,"inconclusive: 14.1 µM [quencher, partial curve]",–
CS(=O)(=O)c1ccc(NCCc2ccccn2)c([N+](=O)[O-])c1,"inconclusive: 15.8 µM [quencher, side channel, partial curve]",–
COc1cccc(NC(=O)Nc2ccc(CC(=O)O)cc2)c1,inactive,–
CCOC(=O)C(C)N1C(=O)S/C(=C\c2ccc(-c3ccccc3C(=O)O)o2)C1=O (stereo not given),inactive,–
Cc1cccc(OCC(=O)N=Nc2c(O)[nH]c3ccc([N+](=O)[O-])cc23)c1,"inconclusive: 6.31 µM [quencher, side channel, partial curve]",–
CCCCc1c(CCC)c(=N)c2ccccc2n1C,inactive,–
Cc1cccc(C)c1NC(=O)Cn1nc(-c2ccccc2)nc1-c1ccccc1,"inconclusive: 7.08 µM [quencher, side channel, full curve]",–
COc1ccccc1NC(=O)/C=C/c1ccc2c(c1)OCO2,"inconclusive: 25.1 µM [quencher, side channel, single point]",–
CCc1nc(C)ccc1OC(=O)C12CC3CC(CC(C3)C1)C2,"inconclusive: 0.0251 µM [fluorescent, side channel, full curve]",–
Fc1ccccc1N1CCN(c2nc3ccccc3n3nnnc23)CC1,"inconclusive: 35.5 µM [quencher, side channel, single point]",–
N#C/C(=N\Nc1ccccc1)C(N)=S,"inconclusive: 20 µM [quencher, side channel, partial curve]",–

Compound,Potency,"activity change, negative = inhibition"
CCN(CC)Cc1c(O)ccc2c(=O)c(-c3ccccc3)coc12,inactive,–
Cc1cc(C)n2[nH]c(=O)c(N=Nc3cccc(Cl)c3)c2n1,"inconclusive: 8.91 µM [quencher, side channel, full curve]",–
Cc1ccc(/C=C/c2onc(C)c2S(=O)(=O)N2CCC(C(=O)N3CCN(C)CC3)CC2)cc1,"inconclusive: 14.1 µM [quencher, side channel, partial curve]",–
Cc1ccc(CC(=O)Nc2ncc([N+](=O)[O-])s2)cc1,"inconclusive: 17.8 µM [quencher, side channel, partial curve]",–
NC(=O)CCN(C1CCCCC1)S(=O)(=O)c1cccc2nsnc12,"inconclusive: 17.8 µM [quencher, side channel, partial curve]",–
CN=C1c2cc3c(Br)c(OC)ccc3n2CCN1C,"inconclusive: 25.1 µM [quencher, side channel, partial curve]",–
Cc1ccc(-c2nnn(CC(=O)N(CC(=O)NC3CCCCC3)c3ccc(F)c(Cl)c3)n2)o1,"inconclusive: 3.16 µM [fluorescent, side channel, partial curve]",–
COc1ccc(N2CCN(c3ccc(C(=O)O)cc3[N+](=O)[O-])CC2)cc1,"inconclusive: 22.4 µM [quencher, side channel, partial curve]",–
O=C(Nc1ccc(Oc2ccc(NC(=O)Nc3ccccc3Cl)cc2)cc1)Nc1ccccc1Cl,inactive,–
CCOC(=O)c1cnc2c(Cl)c(Cl)ccc2c1N1CCN(C)CC1,"inconclusive: 14.1 µM [quencher, side channel, partial curve]",–
Cc1ccc2nc3c(cc(C#N)c(=O)n3CCN3CCOCC3)c(=O)n2c1,"inconclusive: 14.1 µM [quencher, side channel, partial curve]",–
COc1ccc(N2C(=O)/C(=C3/C=CC=CN3C)SC2=S)cc1,"inconclusive: 15.8 µM [quencher, side channel, partial curve]",–
CCN(CC)C(=O)CSc1n[nH]c(=O)n1CCc1ccccc1,inactive,–
O=[N+]([O-])c1ccc2cn(-c3ccccc3)nc2c1,"inconclusive: 3.16 µM [quencher, side channel, partial curve]",–
O=C(CSc1ncnc2ccccc12)c1cccs1,"inconclusive: 25.1 µM [quencher, side channel, partial curve]",–
N#Cc1cc2nc(O)c(O)nc2cc1[N+](=O)[O-],"inconclusive: 5.01 µM [quencher, side channel, partial curve]",–
CCOc1ccc2c(c1)-c1c(ssc1=S)C(C)(C)N2,"inconclusive: 17.8 µM [quencher, side channel, partial curve]",–
Cc1ccc2c(CC(=O)Nc3nc(C)cs3)coc2c1,inactive,–
COc1cc([N+](=O)[O-])ccc1NC(=O)Oc1ccc(NC(C)=O)cc1,"inconclusive: 20 µM [quencher, single point]",–
Cc1cnc(NC(=O)Nc2ccc(Cl)cc2)s1,inactive,–

# Source: PubChem BioAssay AID2675 (National Center for Advancing Translational Sciences (NCATS), 2010)
